Data reported in publication PMC5316989.
No constants are given. Whether binding was seen depends on the method and setting. For part of these data: Binding seen in cells or lysates may run through a third protein. Some results given as binding are weak or reduced against the parent protein; the word gives no strength. Sequences can lack the tags named with a protein.

Chains of the proteins cited; added tags and fusions are not shown.
UniProt O00399: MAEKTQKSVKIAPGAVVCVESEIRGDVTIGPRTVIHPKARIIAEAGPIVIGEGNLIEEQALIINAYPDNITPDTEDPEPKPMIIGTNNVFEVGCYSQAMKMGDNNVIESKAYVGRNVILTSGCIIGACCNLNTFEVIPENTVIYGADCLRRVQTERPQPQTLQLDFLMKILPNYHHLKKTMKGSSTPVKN
UniProt Q92783: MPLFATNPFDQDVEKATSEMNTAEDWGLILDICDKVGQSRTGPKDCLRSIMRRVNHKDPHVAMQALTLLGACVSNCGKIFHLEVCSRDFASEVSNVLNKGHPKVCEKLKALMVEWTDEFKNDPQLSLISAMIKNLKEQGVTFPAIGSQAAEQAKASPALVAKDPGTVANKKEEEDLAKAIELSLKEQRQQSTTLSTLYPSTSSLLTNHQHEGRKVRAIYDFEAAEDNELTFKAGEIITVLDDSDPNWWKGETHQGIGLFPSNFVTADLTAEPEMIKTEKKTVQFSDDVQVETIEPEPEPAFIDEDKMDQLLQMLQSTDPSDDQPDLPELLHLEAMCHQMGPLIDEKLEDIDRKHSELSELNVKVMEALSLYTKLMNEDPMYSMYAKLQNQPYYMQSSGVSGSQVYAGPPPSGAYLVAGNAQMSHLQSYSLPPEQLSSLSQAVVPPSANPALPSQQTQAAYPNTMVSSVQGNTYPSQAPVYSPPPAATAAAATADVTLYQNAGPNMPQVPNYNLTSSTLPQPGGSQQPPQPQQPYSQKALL
UniProt O14964: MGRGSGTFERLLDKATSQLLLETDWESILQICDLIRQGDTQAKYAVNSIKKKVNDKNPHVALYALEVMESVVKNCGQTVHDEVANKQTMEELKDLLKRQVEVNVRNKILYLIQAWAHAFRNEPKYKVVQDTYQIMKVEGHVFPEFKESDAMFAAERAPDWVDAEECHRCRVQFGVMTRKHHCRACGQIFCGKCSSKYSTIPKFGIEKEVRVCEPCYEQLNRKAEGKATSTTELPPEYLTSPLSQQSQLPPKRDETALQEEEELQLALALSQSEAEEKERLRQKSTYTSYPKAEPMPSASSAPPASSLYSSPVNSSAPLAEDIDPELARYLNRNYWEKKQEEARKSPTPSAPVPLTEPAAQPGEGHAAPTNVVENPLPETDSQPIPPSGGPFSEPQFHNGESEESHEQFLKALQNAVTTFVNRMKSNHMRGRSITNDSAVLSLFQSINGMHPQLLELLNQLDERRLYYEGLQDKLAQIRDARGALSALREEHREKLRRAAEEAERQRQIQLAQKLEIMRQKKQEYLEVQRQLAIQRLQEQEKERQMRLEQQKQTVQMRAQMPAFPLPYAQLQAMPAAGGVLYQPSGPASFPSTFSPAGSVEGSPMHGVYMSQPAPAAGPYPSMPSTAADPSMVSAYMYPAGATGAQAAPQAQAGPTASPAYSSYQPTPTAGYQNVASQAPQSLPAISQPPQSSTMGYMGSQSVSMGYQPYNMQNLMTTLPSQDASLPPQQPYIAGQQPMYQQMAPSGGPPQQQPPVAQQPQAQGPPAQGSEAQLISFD
UniProt Q9BTE1: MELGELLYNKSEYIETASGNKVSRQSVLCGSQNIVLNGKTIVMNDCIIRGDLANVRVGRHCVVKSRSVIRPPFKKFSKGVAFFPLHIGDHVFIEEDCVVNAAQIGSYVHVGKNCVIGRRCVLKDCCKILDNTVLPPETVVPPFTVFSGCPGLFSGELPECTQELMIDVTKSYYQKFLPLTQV
UniProt Q9UJW0: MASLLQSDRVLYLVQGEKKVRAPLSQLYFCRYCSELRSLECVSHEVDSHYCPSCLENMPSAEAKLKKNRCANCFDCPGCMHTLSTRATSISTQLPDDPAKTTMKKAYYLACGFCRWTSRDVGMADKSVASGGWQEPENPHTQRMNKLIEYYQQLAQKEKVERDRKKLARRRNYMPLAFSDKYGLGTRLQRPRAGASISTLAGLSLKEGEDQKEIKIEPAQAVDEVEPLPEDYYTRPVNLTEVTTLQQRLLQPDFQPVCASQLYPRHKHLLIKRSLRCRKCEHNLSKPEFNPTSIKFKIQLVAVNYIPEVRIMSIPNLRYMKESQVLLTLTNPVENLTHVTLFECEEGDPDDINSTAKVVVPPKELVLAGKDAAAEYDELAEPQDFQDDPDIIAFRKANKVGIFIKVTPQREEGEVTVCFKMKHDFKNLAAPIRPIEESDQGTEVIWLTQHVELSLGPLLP
UniProt P46934: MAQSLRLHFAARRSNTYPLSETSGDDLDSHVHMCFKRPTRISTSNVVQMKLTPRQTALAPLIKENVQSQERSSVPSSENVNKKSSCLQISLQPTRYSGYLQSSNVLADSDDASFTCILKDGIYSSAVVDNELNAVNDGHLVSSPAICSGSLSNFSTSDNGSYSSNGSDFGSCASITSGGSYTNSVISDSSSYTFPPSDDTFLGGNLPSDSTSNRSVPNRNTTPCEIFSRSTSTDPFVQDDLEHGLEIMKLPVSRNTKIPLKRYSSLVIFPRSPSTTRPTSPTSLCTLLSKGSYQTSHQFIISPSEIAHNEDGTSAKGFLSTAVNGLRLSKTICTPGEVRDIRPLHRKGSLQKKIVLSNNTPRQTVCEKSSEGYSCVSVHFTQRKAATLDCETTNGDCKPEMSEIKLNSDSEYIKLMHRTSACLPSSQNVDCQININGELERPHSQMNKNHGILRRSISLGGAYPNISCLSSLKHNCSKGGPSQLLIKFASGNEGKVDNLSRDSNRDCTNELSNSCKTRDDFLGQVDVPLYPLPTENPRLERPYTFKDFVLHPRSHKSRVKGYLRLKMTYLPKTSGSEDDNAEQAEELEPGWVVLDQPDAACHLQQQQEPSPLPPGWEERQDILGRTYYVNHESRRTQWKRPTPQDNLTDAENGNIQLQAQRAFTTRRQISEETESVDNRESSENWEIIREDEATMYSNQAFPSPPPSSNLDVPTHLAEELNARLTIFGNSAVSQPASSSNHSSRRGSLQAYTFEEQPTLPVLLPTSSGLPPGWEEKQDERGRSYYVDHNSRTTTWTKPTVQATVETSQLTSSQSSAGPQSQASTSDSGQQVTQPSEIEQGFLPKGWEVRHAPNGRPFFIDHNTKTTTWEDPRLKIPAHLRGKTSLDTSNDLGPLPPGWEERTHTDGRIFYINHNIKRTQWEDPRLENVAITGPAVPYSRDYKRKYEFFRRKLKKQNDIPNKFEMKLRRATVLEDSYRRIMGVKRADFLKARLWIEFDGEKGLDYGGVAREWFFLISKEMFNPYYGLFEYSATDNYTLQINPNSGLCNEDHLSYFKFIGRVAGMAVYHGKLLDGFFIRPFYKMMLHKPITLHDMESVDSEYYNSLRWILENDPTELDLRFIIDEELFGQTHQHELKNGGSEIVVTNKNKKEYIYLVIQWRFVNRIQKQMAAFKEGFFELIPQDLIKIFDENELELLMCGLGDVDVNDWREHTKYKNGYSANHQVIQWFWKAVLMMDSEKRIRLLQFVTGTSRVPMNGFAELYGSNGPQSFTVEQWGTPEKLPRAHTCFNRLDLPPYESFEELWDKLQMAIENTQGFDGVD

Key:
[1] = target: T1, TMEPAI cytoplasmic domain (aa63-287) fused to the GAL4 DNA-binding domain (UniProt Q969W9); assay: two-hybrid; initial yeast two-hybrid screening with TMEPAI; bait and library not described
T1 sequence: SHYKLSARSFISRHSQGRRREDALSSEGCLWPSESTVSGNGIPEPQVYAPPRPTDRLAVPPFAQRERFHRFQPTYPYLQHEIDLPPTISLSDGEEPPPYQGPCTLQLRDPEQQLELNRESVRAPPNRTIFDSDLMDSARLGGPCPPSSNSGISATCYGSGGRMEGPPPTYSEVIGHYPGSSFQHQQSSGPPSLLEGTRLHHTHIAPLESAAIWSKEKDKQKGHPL

[2] = target: T1, TMEPAI cytoplasmic domain (aa63-287) fused to the GAL4 DNA-binding domain; assay: two-hybrid; TMEPAI versions as GAL4 DNA-binding domain fusions, partners as GAL4 activation domain fusions; yeast patched on DDO, QDO and QDO/X/A plates, growth on QDO and QDO/X/A means interaction
[3] = target: T2, TMEPAI cytoplasmic domain lacking aa132–155 fused to the GAL4 DNA-binding domain (UniProt Q969W9); assay: as above
T2 sequence: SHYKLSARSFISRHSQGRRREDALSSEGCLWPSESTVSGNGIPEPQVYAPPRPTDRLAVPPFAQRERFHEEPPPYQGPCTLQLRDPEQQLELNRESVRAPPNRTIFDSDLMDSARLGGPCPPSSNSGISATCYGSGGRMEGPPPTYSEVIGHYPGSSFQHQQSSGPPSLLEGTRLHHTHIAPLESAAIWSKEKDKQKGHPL

TMEPAI-WT-Flag = target: T3, TMEPAI-WT-Flag (UniProt Q969W9); assay: co-IP; HeLa cells co-transfected with TMEPAI-WT-Flag and HA-Hrs or HA-STAM; extracts immunoprecipitated with antibody to Flag, blot with antibodies to HA and Flag
T3 sequence: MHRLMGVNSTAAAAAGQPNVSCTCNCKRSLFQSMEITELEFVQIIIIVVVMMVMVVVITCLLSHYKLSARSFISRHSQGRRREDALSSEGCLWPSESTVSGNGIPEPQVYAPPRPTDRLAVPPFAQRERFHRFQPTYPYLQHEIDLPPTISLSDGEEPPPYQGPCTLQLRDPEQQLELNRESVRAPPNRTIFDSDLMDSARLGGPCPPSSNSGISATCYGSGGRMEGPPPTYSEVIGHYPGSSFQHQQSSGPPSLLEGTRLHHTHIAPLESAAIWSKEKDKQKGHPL

[4] = target: T4, GST-tagged cytoplasmic domain of TMEPAI with deletion of amino acids 132–155 (GST-TMEPAI (Δ132–155)) (UniProt Q969W9); assay: pull-down; GST fusion proteins on Glutathione Sepharose beads incubated with His-HA-tagged recombinant DCTN5 or DCTN6; blot with antibody to HA; both purified
T4 sequence: T2 sequence

[5] = target: T1, TMEPAI cytoplasmic domain (aa63-287) fused to the GAL4 DNA-binding domain; assay: two-hybrid; data not shown; told in the sentence on the yeast two-hybrid deletion screen
[6] = target: T2, TMEPAI cytoplasmic domain lacking aa132–155 fused to the GAL4 DNA-binding domain; assay: as above

Substance: Human dynactin 6 (DCTN6) fused to the GAL4 activation domain (from UniProt O00399 1-190)
- binding [1]: binds
- binding [2]: binds
- binding [3]: no binding

Substance: Human STAM fused to the GAL4 activation domain (from UniProt Q92783 1-540)
- binding [2]: binds

Substance: HA-STAM (from UniProt Q92783 1-540)
- binding (TMEPAI-WT-Flag): binds

Substance: HA-Hrs (from UniProt O14964 1-777)
- binding (TMEPAI-WT-Flag): binds

Substance: Human dynactin 5 (DCTN5) fused to the GAL4 activation domain (from UniProt Q9BTE1 1-182)
- binding [2]: binds
- binding [3]: no binding

Substance: His-HA-tagged recombinant DCTN6 (from UniProt O00399 1-190)
- binding [4]: no binding

Substance: His-HA-tagged recombinant DCTN5 (from UniProt Q9BTE1 1-182)
- binding [4]: no binding

Substance: Human Hrs fused to the GAL4 activation domain (from UniProt O14964 1-777)
- binding [2]: binds

Substance: Human dynactin 4 (DCTN4) fused to the GAL4 activation domain (from UniProt Q9UJW0 1-460)
- binding [2]: no binding

Substance: Human Nedd4 fused to the GAL4 activation domain (from UniProt P46934 1-1319) (enzyme)
- binding [2]: binds
- binding [5]: binds
- binding [6]: binds
